Drawing on the supplement of paper PMC10126150, this text covers switch fluorescence ratio for 79 sequences.

Values marked as one replicate rest on one cluster of the flow cell; about a third of the high ones do not repeat.
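Also: ATP exposure 15 min at 22 °C before imaging.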

The series relates to ATP. In words: switch fluorescence ratio, 500 uM ATP over buffer (Cy3 cluster intensity, sum of 5 cycles each) (fold (ratio)); higher = stronger signal-on switching upon ATP binding; sequences stand for … in TCGTCGGCAGCGTCAGATGTGTATAAGAGACAGTTTTTTTTTTTTTTTTTTTTTTTTT…TC. Particulars: aptamer strand: ATP DNA aptamer (quencher-CACCTGGGGGAGTATTGCGGAGGAAGG + anchor), 100 nM annealed; ATP concentration: 500 uM; one replicate. The procedure, abridged:
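Between each of five buffer/ATP cycles, the flow-cell was stripped with NaOH and re-annealed. Each cycle imaged Cy3-labelled switching-strand clusters, annealed to 100 nM quencher-labelled ATP aptamer on a modified Illumina MiSeq flow-cell, first in selection buffer and then after 15 min with 500 uM ATP at 22 °C. The fluorescence ratio is summed target-cycle over summed buffer-cycle Cy3 intensity per cluster, averaged per switch-domain sequence, with clusters outside 100-1000 RFU excluded.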
As to CCGTTTTGTC, the switch fluorescence ratio worked out at 1.06. As to ACACGCTGGA, the switch fluorescence ratio came to 0.885. The value for ATGAACGATG was 1.04.

For the sequence GGTACTAGAG, the switch fluorescence ratio worked out at 1.03. The value for TCCCAGAAGG was 1.01.

For the sequence CGGTCAGCGC, the switch fluorescence ratio came to 0.98. In the case of CGATTATATG it was 0.993; in that of GTTGTTAAGT, 1.01. For the sequence TAGCTTGACA, the switch fluorescence ratio turned out to be 1.01. The value for GATCTACAGA was 1.02; that for TCGTGCTTGT was 0.995. With ATTACTCGAA, the switch fluorescence ratio came out at 1.01. Take ATAGTTTCGT: the switch fluorescence ratio came to 1.02. Regarding AAATCATACA, the switch fluorescence ratio came to 1.05. Turning to GATACAGCTG, the switch fluorescence ratio stood at 0.955.

For the sequence TCAGGACAC, the switch fluorescence ratio was 1.04. In the case of TTTTCGCTCG it was 1.04; in that of GGAAAAAAGG, 0.989.

With GTTTTCTGTG, the switch fluorescence ratio worked out at 0.941. Take GTTTTATCAA: the switch fluorescence ratio amounted to 0.975. On to CTGTTGTCGC, for which the switch fluorescence ratio was 1.02. ACCAAGTCGT: the switch fluorescence ratio worked out at 0.986. In the case of ACGGCACCTT, the switch fluorescence ratio was determined as 1.49.

As to AGTTTATTCA, the switch fluorescence ratio worked out at 0.938.

On to GACTTCAAGA, for which the switch fluorescence ratio was 1.01.

As for AGGCAGCTGG, the switch fluorescence ratio stood at 1.03. Turning to AAAAAACTTG, the switch fluorescence ratio worked out at 0.985. For the sequence AACGAGCCAA, the switch fluorescence ratio amounted to 1.11. The value for ACTGGTAGCA was 1.05. For the sequence AATGGGCGTG, the switch fluorescence ratio was 0.999. The value for TCGCCCCGAC was 1.31; that for TCCAATCGGG was 1.01. The value for ATTGTAGTAA was 1.03; that for GTCTTTAGAG was 1. The value for ATGGGCATAT was 0.949; that for CTTAATAGGG was 0.991; that for TGCTGGTCAC was 0.993. Consider GACAGTCCAA, for which the switch fluorescence ratio came to 0.993. The value for TAGTGACCCA was 0.975.

Turning to ATACTAGATA, the switch fluorescence ratio amounted to 1. The value for GGGAACTCGC was 1.17; that for CCGATTCGGA was 0.981.

For GGACACAAGA, the switch fluorescence ratio turned out to be 1.03. In the case of TGGAAAAGTC it was 1; in that of TGGACCATCT, 1.33; in that of TCGCTGTACT, 2.42. In the case of CTCTATGCCG it was 1.12; in that of TTTTTCCTGC, 0.989; in that of CAACGACAGA, 1.04.

AAACGTGCCT: the switch fluorescence ratio is 1.05. The value for CGAAGACTAG was 1; that for ATGAGATGTG was 0.964. In the case of CGTTGTAGG it was 1.12; in that of ACGTGATGGC, 1.05.

For the sequence GTTCAAGTGC, the switch fluorescence ratio came out at 0.982. Turning to CCCCTTATGC, the switch fluorescence ratio came to 1.37.

With GTAGAAGCCA, the switch fluorescence ratio was 0.97. Consider TGGGGACGTA, for which the switch fluorescence ratio was 0.998. In the case of GAGGCGTCGT it was 1.03; in that of AAAAGGGAA, 1.02.

Turning to GTGACGTATG, the switch fluorescence ratio came to 1.03. The value for GGGCGCAGA was 1.01; that for TTCAATAATG was 1.02. For the sequence ATATAGCCTT, the switch fluorescence ratio was 1.03. Regarding CGGCCAAGTT, the switch fluorescence ratio was 1.04. As for ATTGTACAAC, the switch fluorescence ratio worked out at 1.03. Consider CTTAGAGTTT, for which the switch fluorescence ratio came to 1.01.

On to TTCGTTCAAG, for which the switch fluorescence ratio is 1.01. As for GACTTCGCTG, the switch fluorescence ratio came out at 1.25. Take CCTTGTCAAC: the switch fluorescence ratio came to 1.04.

On to TGTTCCGGA, for which the switch fluorescence ratio was 0.989.

Take TTCAGCGGAA: the switch fluorescence ratio is 1.04. For the sequence TTAATTCGGC, the switch fluorescence ratio worked out at 0.977. With TAAACGCTCC, the switch fluorescence ratio came out at 1.45. In the case of GGGGCAGCGC it was 0.991. In the case of TTATCGCTA it was 1.05; in that of ATTGTGTGAG, 0.972; in that of TTGTAGGCTT, 0.995.

As for TAGAAACCGG, the switch fluorescence ratio was determined as 1.07.
